Data from PMC12136788.
Some of the results follow.

T1: UNK ZnF1-3 (human, UniProt Q9C0B0 31-174)
T1 sequence: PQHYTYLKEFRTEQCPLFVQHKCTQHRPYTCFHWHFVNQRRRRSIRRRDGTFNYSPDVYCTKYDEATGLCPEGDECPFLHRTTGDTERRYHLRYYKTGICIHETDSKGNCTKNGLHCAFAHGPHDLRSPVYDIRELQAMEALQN

B1: chr5:146772872:146772873:-_ENSG00000113657_ENST00000343218|hu_mus|FALSE|FALSE (ssRNA)
RNA: GGGAGUUCUACAGUCCGACGAUCCAUUUGUUCAUCUGUGUGUGGUCUUCACAGCUGGGAAUAGAAGACUAGAAAGCCACAGGAGAAAGAGGCCUGAGCAAGCAACUGGCAUCACAGGUGGAAGAAAUGGCUGGAUUCUGUCAUCAACAGAGGAUUGAGCAUCA
B2: chr18:52893488:52893489:-_ENSG00000196628_ENST00000354452|hu_hu|hu_hu_hu_mus_True|18_98 (ssRNA)
RNA: GGGAGUUCUACAGUCCGACGAUCUAUUUAGACCAUUUCAAUGGAUUUAUGGCAUUUACUCAGUGCUGAUAGGUGGAAAAACUACUUCAACAGGGAUUUUUUUUUUCCUUAAUACAUGCCAAGAAUUUGUGGCUGUCAAAACAGCAACAGAGGAUUGAGCAUCA
B3: chr16:10423590:10423591:+_ENSMUSG00000022503_ENSMUST00000023146|mus_mus|FALSE|FALSE (ssRNA)
RNA: GGGAGUUCUACAGUCCGACGAUCUGGGAGUCCUGUGACUCAGAGAGUUCCUAGUCCCUUGGAUUCCAGGAAGCAGGCCCUAAGGGAUAGGUUCAAGGAGACAUUUUUAUUUUCUGAUGAAUGGCACCUGGAUGCAGAGCGCCCCAACAGAGGAUUGAGCAUCA
B4: chr16:13835293:13835294:+_ENSMUSG00000022681_ENSMUST00000136618|mus_hu|FALSE|FALSE (ssRNA)
RNA: GGGAGUUCUACAGUCCGACGAUCAGAAAACAGUGUGUGAGCUGGAGAUGGGUGUUUUUUUAAAAACAUCAAGGUAGAUCUAAUAUGUUCAACAAAGUGGGGUGGCUCAGCCAGAGGCGAAGUGGAAAGAUUCUCUAGUAUUUGCAACAGAGGAUUGAGCAUCA
B5: chr11:100882373:100882374:+_ENSMUSG00000019302_ENSMUST00000044721|mus_mus|mus_mus_mus_hu_True|28_108 (ssRNA)
RNA: GGGAGUUCUACAGUCCGACGAUCUUCCUGGUUAGUGUUGAUUUCCUUCAGUUCAUUUUCAAUCUUCUCAAAAUUGGCCUCUAAGUCAAUCAUGUCCCGGGGGAAGGGCACCUCUGGGUUUUCACCGGUGUCCAUAAUCGGAAUCAACAGAGGAUUGAGCAUCA
B6: chr18:35732517:35732518:+_ENSMUSG00000037236_ENSMUST00000166793|mus_mus|FALSE|FALSE (ssRNA)
RNA: GGGAGUUCUACAGUCCGACGAUCUAUAGAGCACAGAUGGGGAUAACCCUUCGGUAAGAGUCCAUGGAAGUCUUCAAUAUUGCUACUUGGAGGAGCGCCCCUCUUUUUCUCAAAGAGAGAUCUCUCUUGUAAGGGGCCAGGACCCAACAGAGGAUUGAGCAUCA
B7: chr2:9724522:9724523:-_ENSG00000134308_ENST00000238081|hu_mus|FALSE|FALSE (ssRNA)
RNA: GGGAGUUCUACAGUCCGACGAUCUUUUUUGGGACUACAGUCAAUGAUUAGCAAACACACAAUAUAGUGGUCCAACUCUCUAAAGAACAAUCACUGGACAAACCGGAUACCCUCUCCCAUGUGCACAACUCUGCAUGGAAAAGUCAACAGAGGAUUGAGCAUCA
B8: chr1:220276048:220276049:+_ENSG00000067704_ENST00000302637|hu_hu|hu_hu_hu_mus_True|58_98 (ssRNA)
RNA: GGGAGUUCUACAGUCCGACGAUCGCAAAUUGCCUGGUUGGCUGGAAUUGUCCAAGGCUGGGUGGUCCAAACUAAAAUACUAACAGGGGAUGAGGCAUCUGUAAGAGACUCCAACUUCGGAGGAGGUCUCAGGAGGGGGAAUCUCAACAGAGGAUUGAGCAUCA
B9: 9210573_9210693_1089_3pUTR_ENSG00000182831_ENST00000327827|human|control|control (ssRNA)
RNA: GGGAGUUCUACAGUCCGACGAUCGUUCCACCAUUGUCCAAGUGGAGUGCCAUUUCUUCUGAUAUGAAAGUGUUCAAAUCGACAUCAUGGAGUCCAUUUCUCCUUCGACUAGCAUUCGAUCCACUGCUUACAUGUGUAGGAGAGCAACAGAGGAUUGAGCAUCA
B10: 62926332_62928626_1961_CDS_ENSG00000061987_ENST00000546600|human|control|control (ssRNA)
RNA: GGGAGUUCUACAGUCCGACGAUCAACAAUUUCCUUAUCCAUUUGGUCUGAUGUUGACUGUAAAUCCUGCUGUUCUGUCGACUGUGUUGGUGAAGAACCUUCUUCAGUGGUGGUUUGACAUUCUGUUUCAAGCUCUCCUAGCUCCAACAGAGGAUUGAGCAUCA
B11: chr2:32086683:32086684:+_ENSMUSG00000039262_ENSMUST00000036691|mus_hu|motif|central (ssRNA)
RNA: GGGAGUUCUACAGUCCGACGAUCCAGAGGCUAGAGAUGGAAGGGAGCGGAGGGGCUGGCAAGAAACAUAUAAAAGUUCAGCGGUACACAUGGAGCUUGCGUUUUUGUUUUCUUUUCCUUUCCCCUUUGUAAAAACCUUGGCUACAACAGAGGAUUGAGCAUCA
B12: chr3:185641624:185641625:-_ENSG00000136527_ENST00000456380|hu_hu|FALSE|FALSE (ssRNA)
RNA: GGGAGUUCUACAGUCCGACGAUCGGCACGUUCUUUAGCUUCCUUGGCAUCAUCUACAUUUUCAAAAUAUACAAAGGCAAAUCCUCUUGAACGCCUAGACUGCUGGUCAUAUACAAUAGACACAUCGGCAAUGGGACCAUAUUUCAACAGAGGAUUGAGCAUCA
B13: chr19:8913615:8913616:-_ENSMUSG00000071658_ENSMUST00000096259|mus_hu|mus_mus_mus_hu_False|8_28 (ssRNA)
RNA: GGGAGUUCUACAGUCCGACGAUCAGGGUACCAAAACCUUCUGCCUGAAAUGGGUGCCCCACCCAGUAGGGAGUUGCAGCUGAAAGUAUCUGAUGCAGAAGCAGUGAAUGCAGAGAAGGAGGCCCCUGAUGCUCAGAAGGCCAGCAACAGAGGAUUGAGCAUCA
B14: chr7:75932113:75932114:+_ENSG00000106211_ENST00000248553|hu_hu|hu_hu_hu_mus_False|38_108 (ssRNA)
RNA: GGGAGUUCUACAGUCCGACGAUCCUGCGACCACUCCUCGGGCAACCGGGGCACCCCGAAAGCUUGAUCGAAGAGGCGGCUGUGUGCAGGGUACCAGCGGAAGGGGUGUUCCCAGCUCGGGCUCCGCAGCAGCGAGAAGGGCACCAACAGAGGAUUGAGCAUCA

The binders below were run against T1, UNK ZnF1-3 (assay: nsRBNS (natural sequence RNA bind-n-seq); RBNS binding buffer (assumed for nsRBNS): 25 mM Tris pH 7.5, 150 mM KCl, 3 mM MgCl2, 0.01% Triton X-100, 500 ug/ml BSA, 20 U/ml SUPERase-In, 4 C; UNK is unkempt and MSI1 is Musashi-1; names of the RNAs are library labels; protein concentration not given here; high values mean tight binding).

Which binding signal does the source give for B1 here?
Its binding signal is 2.75 enrichment R.

For B2, which binding signal is on record?
The binding signal was 1.08 enrichment R.

With B3 as the binder, how does the binding signal read?
The binding signal was 1.28 enrichment R.

How did the binding signal turn out when B4 was run?
The binding signal was 2.39 enrichment R.

For B5, which binding signal is on record?
The binding signal was 0.547 enrichment R.

B6 was tested. Which binding signal did it give?
Its binding signal is 0.996 enrichment R.

For B7, which binding signal is on record?
Its binding signal is 1.24 enrichment R.

Which binding signal does the source give for B8 here?
Its binding signal is 1.9 enrichment R.

For B9, which binding signal is on record?
Its binding signal is 0.477 enrichment R.

Which binding signal does the source give for B10 here?
The binding signal was 0.365 enrichment R.

B11 was tested. Which binding signal did it give?
Its binding signal is 1.69 enrichment R.

B12 was tested. Which binding signal did it give?
Its binding signal is 1.42 enrichment R.

With B13 as the binder, how does the binding signal read?
Its binding signal is 1.15 enrichment R.

How did the binding signal turn out when B14 was run?
The binding signal was 1.08 enrichment R.
